According to PubChem BioAssay AID463173 (ICCB-Longwood Screening Facility, Harvard Medical School, 2010):
Among all 52,000 compounds or so, about 4,300 (8.3%) were called active. Cut-off read from the data, not from the text of the source: active = survival mostly below about 52% (no sharp cut-off); inactive = mostly above about 56%. The list shows a part of the results.

Each compound was assayed on DeltatarO mutant (assay: S. aureus survival, RN4220 and DeltatarO strains – OD600, teichoic acid synthesis inhibitors, primary screen (AID 463173)). Settings: S. aureus RN4220 wild type/DeltatarO growth, OD600, 18 h, active compounds read low, screened at 18.75 µg/mL (by protocol).
For O=C(COC(=O)c1ccco1)NCC1CCCO1 (stereo unspecified), the survival was inactive: 101%. COc1cccc(C2CC(=O)NC(SC)=C2C#N)c1 (stereo unspecified) was tested, and the survival was inactive: 89%. CC(C)C(=O)N(Cc1ccccc1)S(=O)(=O)c1ccc2c(c1)oc(=O)n2C was tested, and the survival was inactive: 44%. For Cc1ccc(-n2c(=O)c3c4c(sc3n(Cc3cccc(Cl)c3)c2=O)CCC4)cc1C, the survival was inactive: 150%. Cc1nc2nncn2c(NCc2ccc(Cl)cc2)c1C was tested, and the survival was inactive: 77%. Cc1ccc(CN(C(=O)COc2ccc(Cl)c(C)c2)C2CCS(=O)(=O)C2)o1 (stereo unspecified) was tested, and the survival was inactive: 84%. With Cc1csc2nc(COC(=O)c3ccccc3NC(=O)COc3ccccc3F)cc(=O)n12 the survival was inactive: 94%. For Cc1ccc(Cl)cc1NC(=O)Cn1c(=O)n(CCCS(=O)(=O)C2CCCCC2)c(=O)c2ccccc21, the survival was inactive: 61%. With C=CCC(CC=C)(CNC(=O)C(=O)Nc1cc(C)ccc1OC)c1ccc(OC)c(OC)c1 the survival was inactive: 96%. For CCOc1ccc(C2=NC(c3ccc(OC)cc3)=Nc3ccc(Cl)cc3N2)cc1, the survival was inactive: 71%. With Cc1nc(Cc2ccc(OC(C)C)cc2)[nH]c(=O)c1CC(=O)O the survival was inactive: 110%. In the case of COc1ccccc1CNC(=O)CN1C(=O)COc2ccc(S(=O)(=O)N3CCC(C)CC3)cc21, the survival is reported as inactive: 76%. With O=C(Cn1cc(S(=O)(=O)N2CCCC2)c(S(=O)(=O)N2CCCC2)c1)Nc1cccc(F)c1 the survival was inactive: 98%. CCc1ccc(NC(=O)C(C)n2nnc3sc(-c4ccccc4)cc3c2=O)cc1 (stereo unspecified) was tested, and the survival was inactive: 63%. For COc1ccc(NC(=O)/C(C#N)=C/c2cc(C)n(-c3ccc(F)cc3)c2C)cc1, the survival was inactive: 78%. For CCOC(=O)c1cccc(NC(=O)C2CCCN(S(=O)(=O)c3ccc4c(c3)oc(=O)n4C)C2)c1 (stereo unspecified), the survival was inactive: 80%. With COc1ccc(Cn2c(=O)sc3ccccc32)cc1 the survival was inactive: 74%. In the case of O=C(NC1CC2CCCC(C1)N2Cc1ccccc1)C1CC1 (stereo unspecified), the survival is reported as inactive: 69%. With Cc1nc(NCCNC(=O)c2cccs2)c2c3c(sc2n1)CCCC3 the survival was inactive: 99%. CCOc1ccc(N(CC)S(=O)(=O)c2cc(Br)cc3c2N(C(C)=O)C(C)C3)cc1 (stereo unspecified) was tested, and the survival was inactive: 60%. In the case of Cc1cccc(N2CCN(C(=O)Cn3nc(C)n4cccc4c3=O)CC2C)c1 (stereo unspecified), the survival is reported as inactive: 90%. With CN(Cc1ccccc1)S(=O)(=O)c1nnc(NC(=O)c2cccc(Cl)c2)s1 the survival was active: 1%. For CCOC(=O)c1cc2c(nc1N)CC(C)(C)OC2, the survival was inactive: 99%. With CCCCN(C)CCCNC(=O)Cn1ncc2c3ccccc3n(Cc3ccccc3)c2c1=O the survival was inactive: 149%. In the case of Cc1cccc(NC(=O)CSc2nccn2Cc2ccc(F)cc2)c1C, the survival is reported as inactive: 94%. In the case of Cc1cc(C)cc(OCC(=O)Nc2c(C)ccc3nsnc23)c1, the survival is reported as inactive: 63%. With COc1ccc(S(=O)(=O)c2cnc3ccc(Cl)cc3c2N2CCCCC2C)cc1 (stereo unspecified) the survival was inactive: 134%. With Cc1ccccc1NC(=O)CSc1nc2nccnc2c(=O)n1CCc1c[nH]c2ccccc12 the survival was active: 40%. With CCN(CC)C(=O)CSc1nsc(SCC(=O)N(CC)CC)c1C#N the survival was inactive: 76%. In the case of CCc1ccc(-n2nc(C)c3c(C)cc(=O)n(Cc4nc(-c5ccccc5)oc4C)c32)cc1, the survival is reported as inactive: 99%. With Cc1ccc(NC(=O)CN2C(=O)CCc3cc(S(=O)(=O)N4CCOCC4)ccc32)cc1F the survival was active: 47%. In the case of COc1ccc(OC)c(CNC(=O)c2ccc(Sc3ccc(C)cc3)c(N)c2)c1, the survival is reported as inactive: 80%. In the case of Cc1cccc(CNC(=O)CCn2c(=O)c3cccn3c3ccc(F)cc32)c1, the survival is reported as inactive: 92%. With CCOc1ccc(CNC(=O)C2Cc3ccccc3N2C(=O)CC)cc1OC (stereo unspecified) the survival was inactive: 78%. In the case of CCCc1nn2c(=O)cc(COC(=O)c3ccccc3NC(=O)COc3ccccc3F)nc2s1, the survival is reported as inactive: 84%. With Cc1nc2c(C(=O)NCCCN(CC(C)C)CC(C)C)cnn2c(C)c1Cc1c(F)cccc1Cl the survival was inactive: 92%. For CCCOC(=O)c1c(NC(=O)c2nc3ncccn3n2)sc(C(N)=O)c1C, the survival was inactive: 85%. With COc1cccc(-c2cc(C(F)(F)F)n3ncc(C(=O)NN4CCN(C)CC4)c3n2)c1 the survival was inactive: 106%. With CCOc1ccccc1CN1CCN(S(=O)(=O)c2ccccc2)CC1 the survival was inactive: 133%. For Cc1ccccc1NC(=O)c1ccc2c(c1)c(C)c(C)n2Cc1ccccc1, the survival was inactive: 94%. In the case of COc1ccc(S(=O)(=O)N2CCCN(CC(=O)Nc3ccc(NC(C)=O)cc3)CC2)cc1, the survival is reported as inactive: 90%. In the case of COCc1nc2ccccc2n1CCOc1cccc(C)c1, the survival is reported as active: 39%. With O=C(CN1N=C(c2ccc(Cl)cc2)CCC1=O)NCCc1ccc(Cl)cc1 the survival was inactive: 94%. O=C1CC(c2ccccc2)Sc2nc3ccccc3n21 (stereo unspecified) was tested, and the survival was inactive: 66%. For COc1ccccc1NC(=O)CSC1=Nc2ccccc2C2=NC(CC(=O)NCc3ccco3)C(=O)N12 (stereo unspecified), the survival was inactive: 124%. With O=C(N/N=C/c1ccccc1)Nc1ccccc1 the survival was inactive: 104%. For COc1cccc(-n2c(=O)c3c(C)c(C)sc3n(CC(=O)NCc3ccc(C)cc3)c2=O)c1, the survival was inactive: 59%. For CC(C)(C)C(=O)Nc1cccc(-c2cn3cccnc3n2)c1, the survival was inactive: 75%. Cc1ccc(-c2nnc(N3CCOCC3)c3ccccc23)cc1S(=O)(=O)N1CCN(C)CC1 was tested, and the survival was inactive: 97%. For COC(=O)c1cc2sccc2n1CCC#N, the survival was inactive: 103%. With Cc1cccc(CSc2ncc(Cl)c(C(=O)Nc3sc4c(c3C(N)=O)CCCC4)n2)c1 the survival was inactive: 112%. O=C(Cn1c(=O)nc(-c2ccccc2)c2ccccc21)Nc1cccc(C(F)(F)F)c1 was tested, and the survival was inactive: 104%. For CCn1c(CCc2ccccc2)n[nH]c1=S, the survival was inactive: 102%. With CC(=O)NC1C(=O)N(C(C)C)c2ccccc21 (stereo unspecified) the survival was inactive: 97%. With COc1cccc(CNCCNC(=O)c2nonc2N)c1 the survival was inactive: 72%. With O=C(NCc1ccccc1Cl)c1cc2c(s1)-c1ccc(Cl)cc1SC2 the survival was inactive: 60%. In the case of CCSc1nc2c([nH]c3ccccc32)c(=O)n1CC, the survival is reported as inactive: 68%. CCOC(=O)CSc1nc(-c2ccc(C)cc2C)cc(-c2ccccc2)c1C#N was tested, and the survival was inactive: 68%. With CCOc1ccccc1NC(=O)N1CC(CC)Oc2ccccc21 (stereo unspecified) the survival was inactive: 64%. Cc1ccc(C(=O)CSc2nc(-c3ccccc3)nc3c2CCCC3)cc1 was tested, and the survival was active: 36%. CC(NC(=O)CSc1ncccn1)c1ccccc1 (stereo unspecified) was tested, and the survival was inactive: 75%. N#C/C(=C\C1CC=CCC1)c1nc2ccccc2[nH]1 (stereo unspecified) was tested, and the survival was inactive: 86%. With Cc1nn(CCC(=O)Nc2cc(F)ccc2F)c(=O)c2nn(-c3ccccc3)c(C)c12 the survival was inactive: 99%. O=C(CC1N=C2c3ccccc3N=C(SCc3cccc(Cl)c3)N2C1=O)NCc1ccc2c(c1)OCO2 (stereo unspecified) was tested, and the survival was inactive: 68%. With CC1CCCCN1C(=O)CSc1n[nH]c(-c2ccccc2Cl)n1 (stereo unspecified) the survival was inactive: 96%. For COc1cc(Nc2nc(SCC(=O)c3ccc(Br)cc3)nc3ccccc23)cc(OC)c1, the survival was inactive: 92%. For COc1ccc(-c2cn(-c3ccc(C)cc3)c(S(=O)(=O)CC(=O)Nc3ccc(F)cc3)n2)cc1, the survival was inactive: 150%. COc1ccccc1NC(=O)c1cc(=O)c2ccc(C)c(C)c2o1 was tested, and the survival was active: 41%. In the case of CCOC(=O)c1ccc2c(c1)N(CC(=O)N(C)c1ccccc1)C(=O)c1ccccc1S2, the survival is reported as inactive: 94%. In the case of CCOc1ccc(CCNC(=O)c2cc3c(=O)oc4ccc(C)cc4c3s2)cc1OCC, the survival is reported as inactive: 67%. In the case of Cc1cc(C)c(NC(=O)CCS(=O)(=O)c2cc3c(cc2Cl)NC(=O)CO3)c(C)c1, the survival is reported as inactive: 80%. CCOc1ccc(NS(=O)(=O)c2cc3c(cc2Cl)NC(=O)CO3)cc1 was tested, and the survival was inactive: 107%. In the case of CCOc1ccc(N(C)S(=O)(=O)c2ccc3c(c2)CCCN3C(C)=O)cc1, the survival is reported as inactive: 86%. For O=C(CSCn1nnc2c(=O)[nH]c(Cc3ccc(F)cc3)nc21)Nc1cccc(C(F)(F)F)c1, the survival was inactive: 64%. COc1cc2c(cc1OC)C(COc1cccc(C(F)(F)F)c1)N(C(=O)c1ccc(S(=O)(=O)N3CCCC3)cc1)CC2 (stereo unspecified) was tested, and the survival was inactive: 80%. In the case of CCc1ccccc1NC(=O)C(=O)NCCCN1CCOCC1, the survival is reported as inactive: 79%. CCC(C)NC(=O)C1CCN(S(=O)(=O)c2ccc3c(c2)CCCN3C(C)=O)CC1 (stereo unspecified) was tested, and the survival was inactive: 67%. With O=C1CCCc2cc(S(=O)(=O)N3CCCC(C(=O)NCc4ccccc4)C3)ccc2N1 (stereo unspecified) the survival was inactive: 73%. For CC(=O)c1cccc(NC(=O)c2nc(-c3ccccc3)n(-c3ccccc3)n2)c1, the survival was inactive: 56%. In the case of Cc1cc(C)c(NC(=O)CN(C)S(=O)(=O)c2ccc3c(c2)CCC(=O)N3)c(C)c1, the survival is reported as inactive: 78%. With COc1cc2c(cc1OC)n(Cc1cccc(C(F)(F)F)c1)c(=O)n1nc(-c3ccccc3)nc21 the survival was inactive: 94%. O=C(Oc1cccc2cccnc12)c1ccccc1 was tested, and the survival was active: 2%. With COc1nc(NCCO)nc(Nc2ccccc2F)n1 the survival was inactive: 62%. For COc1cccc(NC(=O)CCNS(=O)(=O)c2ccc3c(c2)oc(=O)n3C)c1, the survival was inactive: 90%. For COc1ccc(CNC(=O)c2cc3c(=O)n(Cc4ccco4)ccc3nc2C)cc1, the survival was inactive: 102%. Cc1ccccc1NC(=O)Cn1cc(C(=O)c2cccs2)c2ccccc21 was tested, and the survival was inactive: 131%. For CCc1ccc(NC(=O)CSC2=Nc3ccccc3C3=NC(CCC(=O)NCc4ccccc4)C(=O)N23)cc1 (stereo unspecified), the survival was inactive: 106%. In the case of CCCCN(C)C(=O)c1cn(C)c2ccc(S(=O)(=O)N3CCC(C)CC3)cc2c1=O, the survival is reported as inactive: 91%. For Cc1cccc(N2C(=O)c3cccc4c(N5CCNCC5)ccc(c34)C2=O)c1, the survival was inactive: 95%. With COc1ccccc1NC(=O)Cn1c(=O)n(Cc2ccccc2)c(=O)c2c1c1cc(C)ccc1n2C the survival was inactive: 101%. For O=C(Cn1ccc2cc(S(=O)(=O)N3CCCCC3)ccc21)NCCc1ccccc1Cl, the survival was active: -4%.
